Data published in the RNAGym collection of RNA variant scans (doi:10.7554/elife.90254).
Read counts are not given, so values of variants with three or more changes are uncertain.

B1: LINE1-mini (parent)
chain: GGCAGAGCUCAACACAGCGUGGCAAAGUGGCUGUGGCUAGACUGCC

Variants of: B1
Assay: self-cleavage, relative activity (ratio to wild type); higher = more cleavage; in vitro, sequencing; the parent is a self-cleaving ribozyme

| Variant | self-cleavage |
| --- | --- |
| C15U G17U A24C | 0.05 |
| C15U U28G C31A | 0.03 |
| C15G U32C G40U | 0.1 |
| C15A C18G G33U | 0.04 |
| C15U G27U C31A U38C G44A | 0.11 |
| C15U C31U G36U | 0.06 |
| A16C C18G C37A | 0.02 |
| A16C G21A G29C | 0.92 |
| C15A C37U C42U | 0.03 |
| C15G A16C C37U | 0.02 |
| C15G G29A A39U | 0.12 |
| A16C G22A G40C C45U | 0 |
| A16C G21U U32G | 0.83 |
| C15G C31G G35C C37U C46A | 0.01 |
| C15U A24G U32G | 0.3 |
| C15A G19C A26C | 0.19 |
| C15G C31U C42A C46U | 0.01 |
| C15U G19U A24U | 0.19 |
| C15G C18A U34C C42G | 0.02 |
| A16C G17A A39G | 0.03 |
| C15A C23A A39U | 0.04 |
| C15G A24G G30C U34C G35U | 0 |
| A16C A41C C46U | 0.14 |
| C15A G30U C37A G44U | 0.02 |

| Variant | self-cleavage |
| --- | --- |
| A16C C18A U20G A24G G29A | 0.06 |
| C15A G17A C42A | 0.04 |
| C15A G17A C42U | 0.02 |
| C15U G22C A25G | 0.25 |
| C15G G29A C45U | 0.14 |
| C15U G27A U32C A41C | 0.1 |
| C15A C18U U32G G44C | 0.02 |
| C15G G17U G19A | 0 |
| C15G G30C G33U C37A | 0.03 |
| C15A G19A G29U | 0.09 |
| A16C U20C A39U | 0.06 |
| C15U U28G C37A A39G | 0.11 |
| C15U U20A G27U U28A | 1.12 |
| C15U A16G G36C A39U | 0.02 |
| C15A U20G C23U | 0.03 |
| C15U G17C C23G C31G | 0.75 |
| C15U G17U C23U C31U G33U | 0.37 |
| C15G U34G C37G | 0.01 |
| C15U U34A G36U | 0.02 |
| C15U U28G U34G U38G | 0 |
| C15A G21U G35A G44C C45U | 0.01 |
| C15U A16C A25G | 0.07 |
| C15U U43C C45G | 0.05 |
| C15G G29A C37U | 0.04 |

| Variant | self-cleavage |
| --- | --- |
| A16C U20C G22A | 0.19 |
| C15G G33A G36U C37A C46U | 0.01 |
| C15A G19C G27C G40A | 0.02 |
| C15A G17A U28A | 0.02 |
| C15A G19A G36A | 0.07 |
| C15A G21U A24U | 0.01 |
| C15G G19C A25C C37A C46A | 0.01 |
| C15U G29A C42G | 0.09 |
| C15G G33A G35U | 0.02 |
| C15U U20C C46A | 0.08 |
| C15U G33A G44U | 0.13 |
| C15U G29U U38A G44A | 0.3 |
| C15U A39U G40C G44U C45A | 0.03 |
| C15U G17U G22A C23A C42A | 0.26 |
| A16C G36U C45G | 0.02 |
| C15G U34C C42G | 0.02 |
| C15G G17U U20G G36A C37U | 0.02 |
| C15U G19U G36C | 0.05 |
| C15U G21U U28C C42G C46A | 0.02 |
| C15U A16G G27A | 0.04 |
| C15A G40C A41G | 0.08 |
| C15A C18U G33U | 0.14 |
| C15G G30C G44A | 0.03 |
| C15G G36C G44U | 0.02 |

| Variant | self-cleavage |
| --- | --- |
| A16C G17C G19C G22U G29C G36U | 0.05 |
| C15U C18A G29C C45U | 0.07 |
| C15U A16U G27A C31A G35A | 0.03 |
| A16C A39C G40C G44C | 0.03 |
| C15A U20G G44C | 0 |
| C15A G30U U32G C37U C45A C46A | 0.03 |
| C15A G17A G21C C42U C46A | 0.01 |
| C15U G27A U34A | 0.08 |
| C15A G22U C31A G36C | 0.04 |
| C15U C31U U34C | 0.01 |
| C15G G27A C37G U43A | 0 |
| C15G U34A G36U | 0.03 |
| C15A C18U G22A U34A | 0.17 |
| C15G A26C U32A G35A | 0.05 |
| C15G U20G C37A U38G G40A | 0 |
| C15U G22A A26U A39C G44C | 0.05 |
| C15U U20G A26U C46U | 0.26 |
| C15A G30C U34A U38G | 0 |
| C15U C23A G40U | 0.01 |
| C15G A39G C46A | 0.02 |
| C15G G27U G36C G40A C45U | 0.01 |
| C15A G17U G19A C23U G36A U38G | 0.02 |
| C15G G19U G22A G40U C42U G44U | 0.01 |
| C15A G22A U28G | 0.04 |

| Variant | self-cleavage |
| --- | --- |
| C15A G22A U28C | 0.08 |
| C15U G19C G30C U43G | 0 |
| C15U G17A A41C | 0.06 |
| C15G G17U C18U C23A C45A | 0.04 |
| C15G G17C G19U C23A | 0.04 |
| C15U G17C U20G G35U | 0.02 |
| C15G G19A C37G | 0.01 |
| A16C G33A A39C C42G | 0.03 |
| C15U U28C U34C | 0.04 |
| C15U A16G U28A | 0.34 |
| C15U A16G G40U | 0.07 |
| C15A G17C U28G | 0 |
| C15U C23U U34C A39G | 0.02 |
| C15G G27A U28A A39U G40U | 0.01 |
| C15U G17U G19C C31G C45A | 0.08 |
| C15U A16C C46G | 0.05 |
| C15A C31A G33C | 0.04 |
| C15A U20G A26C G36A | 0.01 |
| C15G A16C C18G | 0.06 |
| C15A G19U G27U G29U | 0.03 |
| C15U G40A C42A | 0.16 |
| C15A C37G G40C C42U | 0 |
| C15U C23A C31A | 0.03 |
| C15G G21U C45U | 0.02 |

| Variant | self-cleavage |
| --- | --- |
| C15G G19U G33U C46G | 0.08 |
| C15A G19A C23U U32A | 0.01 |
| A16C G19A G30A | 0.14 |
| C15U C31A U34C U38C | 0.03 |
| C15G U20A C31A C42A C45A | 0.03 |
| C15G C18A G44A | 0.08 |
| C15G G19A U43C | 0.02 |
| C15U G27C U34G C42G C46A | 0.04 |
| A16C A39C G40U C42G | 0.06 |
| C15A C18G G21C G29U C42G | 0.01 |
| C15G G29C C31U G36C | 0.01 |
| C15G U20A C31G | 0.02 |
| C15A C18G U20A G44C | 0.02 |
| C15A C23U G35U | 0.11 |
| C15G G29U C37U | 0.05 |
| C15U G17A A24U A26C | 0.07 |
| C15U C23U U43A | 0.07 |
| C15G G22C U43G G44U | 0.01 |
| C15U G19U U28G | 0.23 |
| C15U U28C C37A | 0.29 |
| C15A G27A G35C G36A | 0.02 |
| C15G G35U U38C A41U | 0.04 |
| C15A G21C G22C U38G C42A | 0.02 |
| A16C G21C C37U C45G | 0.19 |

| Variant | self-cleavage |
| --- | --- |
| C15A G29A G35A C45U | 0.02 |
| A16C C18U G22C C23A C31U | 0.02 |
| C15G A41U C42A | 0.02 |
| C15U G17A A26U U28A | 0.18 |
| A16C G22C U34G | 0.02 |
| C15A C23A G40A | 0.07 |
| C15A U34C A39C | 0 |
| C15A C31U G40A | 0.04 |
| C15A G21U C23U G27U | 0.13 |
| A16C C23U G27U C45G | 0.02 |
| C15A G19U G36A U43A | 0.04 |
| A16C G27A C46A | 0.55 |
| C15G G36A C37A | 0.01 |
| C15A U28A G33A C45A | 0.04 |
| C15G C18U U32A C37A C42G | 0.01 |
| C15A G22U C23U G36C C42A | 0.07 |
| C15A C45A C46G | 0.03 |
| C15A G40U G44U | 0.02 |
| C15A U20A G22A | 0.07 |
| C15A G30A U32G G33A C42A | 0.05 |
| A16C C18G U28A | 0.09 |
| C15A U28A C45U | 0.16 |
| C15U C18A C23A A26U C37A A39G G44U | 0.07 |
